# Results taken from paper PMC9911399, “Two distinct binding modes provide the RNA-binding protein RbFox with extraordinary sequence specificity”.
# Changes are numbered by the printed parent chain; changes in the protein carry UniProt numbers. The list shows a part of the results.
# T1: RBFOX1 RRM (Homo sapiens, UniProt Q9NWB1 109-208)
# T1 sequence: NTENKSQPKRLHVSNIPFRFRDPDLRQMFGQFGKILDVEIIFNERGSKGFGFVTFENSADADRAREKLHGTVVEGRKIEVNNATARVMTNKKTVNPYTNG
# B1: UAAUACC (DNA:RNA)
# RNA: GGGAGACCGGAAUUCAGAUUGUCCUAAUACCUUAAAUCCCGUCGUAGCCACCA
# DNA 1: CAATCTGAATTCCGGTCTCCC
# DNA 2: TGGTGGCTACGACGGGATT
# B2: GUAAUCA (DNA:RNA)
# RNA: B1 RNA with U25G, A26U, U28A, A29U, C31A
# DNA 1: CAATCTGAATTCCGGTCTCCC
# DNA 2: TGGTGGCTACGACGGGATT
# B3: CACGGGA (DNA:RNA)
# RNA: B1 RNA with U25C, A27C, U28G, A29G, C30G, C31A
# DNA 1: CAATCTGAATTCCGGTCTCCC
# DNA 2: TGGTGGCTACGACGGGATT
# B4: UCUAAAA (DNA:RNA)
# RNA: B1 RNA with A26C, A27U, U28A, C30A, C31A
# DNA 1: CAATCTGAATTCCGGTCTCCC
# DNA 2: TGGTGGCTACGACGGGATT
# B5: AUUUGUA (DNA:RNA)
# RNA: B1 RNA with U25A, A26U, A27U, A29G, C30U, C31A
# DNA 1: CAATCTGAATTCCGGTCTCCC
# DNA 2: TGGTGGCTACGACGGGATT
# B6: UGGGGGC (DNA:RNA)
# RNA: B1 RNA with A26G, A27G, U28G, A29G, C30G
# DNA 1: CAATCTGAATTCCGGTCTCCC
# DNA 2: TGGTGGCTACGACGGGATT
# B7: CCUGGAU (DNA:RNA)
# RNA: GGGAGACCGGAAUUCAGAUUGUCCCCUGGAUUUAAAUCCCGUCGUAGCCACCA
# DNA 1: CAATCTGAATTCCGGTCTCCC
# DNA 2: TGGTGGCTACGACGGGATT
# B8: UUUGGCU (DNA:RNA)
# RNA: B7 RNA with C25U, C26U, A30C
# DNA 1: CAATCTGAATTCCGGTCTCCC
# DNA 2: TGGTGGCTACGACGGGATT
# B9: GUACUCC (DNA:RNA)
# RNA: B1 RNA with U25G, A26U, U28C, A29U
# DNA 1: CAATCTGAATTCCGGTCTCCC
# DNA 2: TGGTGGCTACGACGGGATT
# B10: CGAAAUC (DNA:RNA)
# RNA: B1 RNA with U25C, A26G, U28A, C30U
# DNA 1: CAATCTGAATTCCGGTCTCCC
# DNA 2: TGGTGGCTACGACGGGATT
# B11: CUGAAGU (DNA:RNA)
# RNA: B7 RNA with C26U, U27G, G28A, G29A, A30G
# DNA 1: CAATCTGAATTCCGGTCTCCC
# DNA 2: TGGTGGCTACGACGGGATT
# B12: CUGAUGU (DNA:RNA)
# RNA: B7 RNA with C26U, U27G, G28A, G29U, A30G
# DNA 1: CAATCTGAATTCCGGTCTCCC
# DNA 2: TGGTGGCTACGACGGGATT
# B13: CUAGGGU (DNA:RNA)
# RNA: B7 RNA with C26U, U27A, A30G
# DNA 1: CAATCTGAATTCCGGTCTCCC
# DNA 2: TGGTGGCTACGACGGGATT
# B14: CUCGGUC (DNA:RNA)
# RNA: B7 RNA with C26U, U27C, A30U, U31C
# DNA 1: CAATCTGAATTCCGGTCTCCC
# DNA 2: TGGTGGCTACGACGGGATT
# B15: ACUUGUA (DNA:RNA)
# RNA: B7 RNA with C25A, G28U, A30U, U31A
# DNA 1: CAATCTGAATTCCGGTCTCCC
# DNA 2: TGGTGGCTACGACGGGATT
# B16: GAAGUGG (DNA:RNA)
# RNA: B1 RNA with U25G, U28G, A29U, C30G, C31G
# DNA 1: CAATCTGAATTCCGGTCTCCC
# DNA 2: TGGTGGCTACGACGGGATT
# B17: UAAAACG (DNA:RNA)
# RNA: B1 RNA with U28A, C31G
# DNA 1: CAATCTGAATTCCGGTCTCCC
# DNA 2: TGGTGGCTACGACGGGATT
# B18: AGGGCAA (DNA:RNA)
# RNA: B7 RNA with C25A, C26G, U27G, G29C, U31A
# DNA 1: CAATCTGAATTCCGGTCTCCC
# DNA 2: TGGTGGCTACGACGGGATT
# B19: CGCUUCU (DNA:RNA)
# RNA: B7 RNA with C26G, U27C, G28U, G29U, A30C
# DNA 1: CAATCTGAATTCCGGTCTCCC
# DNA 2: TGGTGGCTACGACGGGATT
# B20: UACUAAU (DNA:RNA)
# RNA: B1 RNA with A27C, C30A, C31U
# DNA 1: CAATCTGAATTCCGGTCTCCC
# DNA 2: TGGTGGCTACGACGGGATT
# Target: T1, RBFOX1 RRM
# Assay: EMSA; HiTS-Eq, 1 nM pool, 10 min; buffer printed only for the single-RNA assays: 10 mM Tris pH 7.5, 150 mM NaCl, 3.4 mM EDTA, 0.001% NP-40, 30 C
# Settings: tags: His6 N-terminal (pET28a); label: 5' 32P
# Method in brief: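 Relative association constants, normalised to the cognate motif, were derived by comparing read counts of each RNA species with those of the control reaction. The RNA sequenced was the free fraction, separated by 8% native PAGE after a 10 min equilibration in 50 µL of 1 nM 5′-radiolabelled RNA (7 randomized nucleotides) with increasing concentrations of purified wild-type or mutant RbFox RRM.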
row,Binder,binding signal
1,B1,0.00205 KA relative to UGCAUGU
2,B2,0.00644 KA relative to UGCAUGU
3,B3,0.00287 KA relative to UGCAUGU
4,B4,0.000771 KA relative to UGCAUGU
5,B5,0.00607 KA relative to UGCAUGU
6,B6,0.014 KA relative to UGCAUGU
7,B7,0.0132 KA relative to UGCAUGU
8,B8,0.0284 KA relative to UGCAUGU
9,B9,0.0111 KA relative to UGCAUGU
10,B10,0.00364 KA relative to UGCAUGU
11,B11,0.0156 KA relative to UGCAUGU
12,B12,0.0201 KA relative to UGCAUGU
13,B13,0.00367 KA relative to UGCAUGU
14,B14,0.0132 KA relative to UGCAUGU
15,B15,0.00556 KA relative to UGCAUGU
16,B16,0.017 KA relative to UGCAUGU
17,B17,0.00409 KA relative to UGCAUGU
18,B18,0.0182 KA relative to UGCAUGU
19,B19,0.0121 KA relative to UGCAUGU
20,B20,0.00373 KA relative to UGCAUGU
